Reference: patent US20230398178A1, “METHODS AND COMPOSITIONS FOR TREATING OR PREVENTING A VAGINAL INFECTION OF GARDNERELLA VAGINALIS” (Massachusetts Institute of Technology, priority 2022, published 2023)

Tested on: End1 endocervical cells challenged with G. vaginalis 49145 or 14018
Conditions: End1 cells challenged with G. vaginalis 49145 or 14018, viability after 24 hours

“MUC5B: mucin glycoprotein, predominant in cervicovaginal fluid, purified from pooled human saliva and reconstituted into gels” was tested, and the “effect on endocervical cell death / killing, in words” value was “higher survival rates for the endocervical cells”.
